T1: Human VEGF-A protein (human, UniProt P15692-4 27-191, limits assumed)
T1 sequence (looked up): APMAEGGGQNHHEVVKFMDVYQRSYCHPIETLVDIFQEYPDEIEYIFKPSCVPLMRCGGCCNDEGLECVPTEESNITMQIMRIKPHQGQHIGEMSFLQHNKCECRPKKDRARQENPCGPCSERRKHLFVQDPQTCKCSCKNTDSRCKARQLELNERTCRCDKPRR


Biological target: T1, Human VEGF-A protein
Assay: cell-based or functional assay

VEGF-A IC50; VEGF-A-induced NFAT-RE-luc2P/KDR HEK293 reporter gene expression [nM]	Binder
2.71	PR1010 (R1D2-R2D3-linker-R2D2-R2D3-Fc) (Fc fusion) SDTGRPFVEMYSEIPEIIHMTEGRELVIPCRVTSPNITVTLKKFPLDTLIPDGKRIIWDSRKGFIISNATYKEIGLLTCEATVNGHLYKTNYLTHRQTNTIIDVVLSPSHGIELSVGEKLVLNCTARTELNVGIDFNWEYPSSKHQHKKLVNRDLKTQSGSEMKKFLSTLTIDGVTRSDQGLYTCAASSGLMTKKNSTFVRVHEKGGGGSSPFIASVSDQHGVVYITENKNKTVVIPCLGSISNLNVSLCARYPEKRFVPDGNRISWDSKKGFTIPSYMISYAGMVFCEAKINDESYQSIMYIVVVVGYRIYDVVLSPSHGIELSVGEKLVLNCTARTELNVGIDFNWEYPSSKHQHKKLVNRDLKTQSGSEMKKFLSTLTIDGVTRSDQGLYTCAASSGLMTKKNSTFVRVHEK[human IgG1 Fc with changes not printed]
0.5	PR1135 (R1D2-R2D3-linker-R2D2(Y221S/R222K)-R2D3-Fc) (Fc fusion) SDTGRPFVEMYSEIPEIIHMTEGRELVIPCRVTSPNITVTLKKFPLDTLIPDGKRIIWDSRKGFIISNATYKEIGLLTCEATVNGHLYKTNYLTHRQTNTIIDVVLSPSHGIELSVGEKLVLNCTARTELNVGIDFNWEYPSSKHQHKKLVNRDLKTQSGSEMKKFLSTLTIDGVTRSDQGLYTCAASSGLMTKKNSTFVRVHEKGGGGSSPFIASVSDQHGVVYITENKNKTVVIPCLGSISNLNVSLCARYPEKRFVPDGNRISWDSKKGFTIPSYMISYAGMVFCEAKINDESYQSIMYIVVVVGSKIYDVVLSPSHGIELSVGEKLVLNCTARTELNVGIDFNWEYPSSKHQHKKLVNRDLKTQSGSEMKKFLSTLTIDGVTRSDQGLYTCAASSGLMTKKNSTFVRVHEK[human IgG1 Fc with changes not printed]
0.34	PR1094 (R1D2-R2D3-linker-R2D2 (C162V)-R2D3-Fc) (Fc fusion) SDTGRPFVEMYSEIPEIIHMTEGRELVIPCRVTSPNITVTLKKFPLDTLIPDGKRIIWDSRKGFIISNATYKEIGLLTCEATVNGHLYKTNYLTHRQTNTIIDVVLSPSHGIELSVGEKLVLNCTARTELNVGIDFNWEYPSSKHQHKKLVNRDLKTQSGSEMKKFLSTLTIDGVTRSDQGLYTCAASSGLMTKKNSTFVRVHEKGGGGSSPFIASVSDQHGVVYITENKNKTVVIPCLGSISNLNVSLVARYPEKRFVPDGNRISWDSKKGFTIPSYMISYAGMVFCEAKINDESYQSIMYIVVVVGYRIYDVVLSPSHGIELSVGEKLVLNCTARTELNVGIDFNWEYPSSKHQHKKLVNRDLKTQSGSEMKKFLSTLTIDGVTRSDQGLYTCAASSGLMTKKNSTFVRVHEK[human IgG1 Fc with changes not printed]
0.14	PR1136 (R1D2-R2D3-linker-R2D2-R2D3 (L313R)-Fc) (Fc fusion) SDTGRPFVEMYSEIPEIIHMTEGRELVIPCRVTSPNITVTLKKFPLDTLIPDGKRIIWDSRKGFIISNATYKEIGLLTCEATVNGHLYKTNYLTHRQTNTIIDVVLSPSHGIELSVGEKLVLNCTARTELNVGIDFNWEYPSSKHQHKKLVNRDLKTQSGSEMKKFLSTLTIDGVTRSDQGLYTCAASSGLMTKKNSTFVRVHEKGGGGSSPFIASVSDQHGVVYITENKNKTVVIPCLGSISNLNVSLCARYPEKRFVPDGNRISWDSKKGFTIPSYMISYAGMVFCEAKINDESYQSIMYIVVVVGYRIYDVVLSPSHGIELSVGEKLVLNCTARTELNVGIDFNWEYPSSKHQHKKLVNRDLKTQSGSEMKKFLSTLTIDGVTRSDQGLYTCAASSGRMTKKNSTFVRVHEK[human IgG1 Fc with changes not printed]
0.92	PR1165 (R1D2-R2D3-linker-R2D2(C162I)-R2D3-Fc) (Fc fusion) SDTGRPFVEMYSEIPEIIHMTEGRELVIPCRVTSPNITVTLKKFPLDTLIPDGKRIIWDSRKGFIISNATYKEIGLLTCEATVNGHLYKTNYLTHRQTNTIIDVVLSPSHGIELSVGEKLVLNCTARTELNVGIDFNWEYPSSKHQHKKLVNRDLKTQSGSEMKKFLSTLTIDGVTRSDQGLYTCAASSGLMTKKNSTFVRVHEKGGGGSSPFIASVSDQHGVVYITENKNKTVVIPCLGSISNLNVSLIARYPEKRFVPDGNRISWDSKKGFTIPSYMISYAGMVFCEAKINDESYQSIMYIVVVVGYRIYDVVLSPSHGIELSVGEKLVLNCTARTELNVGIDFNWEYPSSKHQHKKLVNRDLKTQSGSEMKKFLSTLTIDGVTRSDQGLYTCAASSGLMTKKNSTFVRVHEK[human IgG1 Fc with changes not printed]

Biological target: T1, Human VEGF-A protein
Assay: cell-based or functional assay
Remark: another data set of the same source

Binder	VEGF-A IC50; VEGF-A-induced NFAT-RE-luc2P/KDR HEK293 reporter gene expression [nM]
PR1141 (R1D2-R2D3-linker-R2D2 (C162V)-R2D3 (N274F)-Fc) (Fc fusion) SDTGRPFVEMYSEIPEIIHMTEGRELVIPCRVTSPNITVTLKKFPLDTLIPDGKRIIWDSRKGFIISNATYKEIGLLTCEATVNGHLYKTNYLTHRQTNTIIDVVLSPSHGIELSVGEKLVLNCTARTELNVGIDFNWEYPSSKHQHKKLVNRDLKTQSGSEMKKFLSTLTIDGVTRSDQGLYTCAASSGLMTKKNSTFVRVHEKGGGGSSPFIASVSDQHGVVYITENKNKTVVIPCLGSISNLNVSLVARYPEKRFVPDGNRISWDSKKGFTIPSYMISYAGMVFCEAKINDESYQSIMYIVVVVGYRIYDVVLSPSHGIELSVGEKLVLNCTARTELNVGIDFNWEYPSSKHQHKKLVFRDLKTQSGSEMKKFLSTLTIDGVTRSDQGLYTCAASSGLMTKKNSTFVRVHEK[human IgG1 Fc with changes not printed]	1.14
PR1142 (R1D2-R2D3-linker-R2D2 (C162V)-R2D3 (N274I)-Fc) (Fc fusion) SDTGRPFVEMYSEIPEIIHMTEGRELVIPCRVTSPNITVTLKKFPLDTLIPDGKRIIWDSRKGFIISNATYKEIGLLTCEATVNGHLYKTNYLTHRQTNTIIDVVLSPSHGIELSVGEKLVLNCTARTELNVGIDFNWEYPSSKHQHKKLVNRDLKTQSGSEMKKFLSTLTIDGVTRSDQGLYTCAASSGLMTKKNSTFVRVHEKGGGGSSPFIASVSDQHGVVYITENKNKTVVIPCLGSISNLNVSLVARYPEKRFVPDGNRISWDSKKGFTIPSYMISYAGMVFCEAKINDESYQSIMYIVVVVGYRIYDVVLSPSHGIELSVGEKLVLNCTARTELNVGIDFNWEYPSSKHQHKKLVIRDLKTQSGSEMKKFLSTLTIDGVTRSDQGLYTCAASSGLMTKKNSTFVRVHEK[human IgG1 Fc with changes not printed]	0.99

Other lines, results leading:

VEGF-A IC50; VEGF-A-induced NFAT-RE-luc2P/KDR HEK293 reporter gene expression [nM]	Binder
1.16	PR1147 (R1D2-R2D3-linker-R2D2 (C162V)-R2D3 (L313Y)-Fc) (Fc fusion) SDTGRPFVEMYSEIPEIIHMTEGRELVIPCRVTSPNITVTLKKFPLDTLIPDGKRIIWDSRKGFIISNATYKEIGLLTCEATVNGHLYKTNYLTHRQTNTIIDVVLSPSHGIELSVGEKLVLNCTARTELNVGIDFNWEYPSSKHQHKKLVNRDLKTQSGSEMKKFLSTLTIDGVTRSDQGLYTCAASSGLMTKKNSTFVRVHEKGGGGSSPFIASVSDQHGVVYITENKNKTVVIPCLGSISNLNVSLVARYPEKRFVPDGNRISWDSKKGFTIPSYMISYAGMVFCEAKINDESYQSIMYIVVVVGYRIYDVVLSPSHGIELSVGEKLVLNCTARTELNVGIDFNWEYPSSKHQHKKLVNRDLKTQSGSEMKKFLSTLTIDGVTRSDQGLYTCAASSGYMTKKNSTFVRVHEK[human IgG1 Fc with changes not printed]
0.84	PR1143 (R1D2-R2D3-linker-R2D2 (C162V)-R2D3 (R275L)-Fc) (Fc fusion) SDTGRPFVEMYSEIPEIIHMTEGRELVIPCRVTSPNITVTLKKFPLDTLIPDGKRIIWDSRKGFIISNATYKEIGLLTCEATVNGHLYKTNYLTHRQTNTIIDVVLSPSHGIELSVGEKLVLNCTARTELNVGIDFNWEYPSSKHQHKKLVNRDLKTQSGSEMKKFLSTLTIDGVTRSDQGLYTCAASSGLMTKKNSTFVRVHEKGGGGSSPFIASVSDQHGVVYITENKNKTVVIPCLGSISNLNVSLVARYPEKRFVPDGNRISWDSKKGFTIPSYMISYAGMVFCEAKINDESYQSIMYIVVVVGYRIYDVVLSPSHGIELSVGEKLVLNCTARTELNVGIDFNWEYPSSKHQHKKLVNLDLKTQSGSEMKKFLSTLTIDGVTRSDQGLYTCAASSGLMTKKNSTFVRVHEK[human IgG1 Fc with changes not printed]
0.51	PR1144 (R1D2-R2D3-linker-R2D2 (C162V)-R2D3 (D276Q)-Fc) (Fc fusion) SDTGRPFVEMYSEIPEIIHMTEGRELVIPCRVTSPNITVTLKKFPLDTLIPDGKRIIWDSRKGFIISNATYKEIGLLTCEATVNGHLYKTNYLTHRQTNTIIDVVLSPSHGIELSVGEKLVLNCTARTELNVGIDFNWEYPSSKHQHKKLVNRDLKTQSGSEMKKFLSTLTIDGVTRSDQGLYTCAASSGLMTKKNSTFVRVHEKGGGGSSPFIASVSDQHGVVYITENKNKTVVIPCLGSISNLNVSLVARYPEKRFVPDGNRISWDSKKGFTIPSYMISYAGMVFCEAKINDESYQSIMYIVVVVGYRIYDVVLSPSHGIELSVGEKLVLNCTARTELNVGIDFNWEYPSSKHQHKKLVNRQLKTQSGSEMKKFLSTLTIDGVTRSDQGLYTCAASSGLMTKKNSTFVRVHEK[human IgG1 Fc with changes not printed]
0.98	PR1146 (R1D2-R2D3-linker-R2D2 (C162V)-R2D3 (L289Y)-Fc) (Fc fusion) SDTGRPFVEMYSEIPEIIHMTEGRELVIPCRVTSPNITVTLKKFPLDTLIPDGKRIIWDSRKGFIISNATYKEIGLLTCEATVNGHLYKTNYLTHRQTNTIIDVVLSPSHGIELSVGEKLVLNCTARTELNVGIDFNWEYPSSKHQHKKLVNRDLKTQSGSEMKKFLSTLTIDGVTRSDQGLYTCAASSGLMTKKNSTFVRVHEKGGGGSSPFIASVSDQHGVVYITENKNKTVVIPCLGSISNLNVSLVARYPEKRFVPDGNRISWDSKKGFTIPSYMISYAGMVFCEAKINDESYQSIMYIVVVVGYRIYDVVLSPSHGIELSVGEKLVLNCTARTELNVGIDFNWEYPSSKHQHKKLVNRDLKTQSGSEMKKFYSTLTIDGVTRSDQGLYTCAASSGLMTKKNSTFVRVHEK[human IgG1 Fc with changes not printed]
1.49	PR1148 (R1D2-R2D3-linker-R2D2 (C162V)-R2D3 (L277R/L289Y)-Fc) (Fc fusion) SDTGRPFVEMYSEIPEIIHMTEGRELVIPCRVTSPNITVTLKKFPLDTLIPDGKRIIWDSRKGFIISNATYKEIGLLTCEATVNGHLYKTNYLTHRQTNTIIDVVLSPSHGIELSVGEKLVLNCTARTELNVGIDFNWEYPSSKHQHKKLVNRDLKTQSGSEMKKFLSTLTIDGVTRSDQGLYTCAASSGLMTKKNSTFVRVHEKGGGGSSPFIASVSDQHGVVYITENKNKTVVIPCLGSISNLNVSLVARYPEKRFVPDGNRISWDSKKGFTIPSYMISYAGMVFCEAKINDESYQSIMYIVVVVGYRIYDVVLSPSHGIELSVGEKLVLNCTARTELNVGIDFNWEYPSSKHQHKKLVNRDRKTQSGSEMKKFYSTLTIDGVTRSDQGLYTCAASSGLMTKKNSTFVRVHEK[human IgG1 Fc with changes not printed]
